Source: patent publication US5834430A, “Potentiation of antibiotics” (BiosYnth S.r.l., priority 1995, dated 1998)
At least one peptide structure holds a part that was inferred or is arguable (an end, a ring closure or a residue). Positions of bridges follow the written chain, without caps; N, C: chain ends. Residues, ends and D or L forms follow the SMILES beside them.

Tests used:
Enterob. cloacae 12654 = experiment: Antibacterial activity of peptide used alone; assay type: cell-based, Enterobacter cloacae; details: no antibiotic
E. coli IH3080 [1] = experiment: Checkerboard microdilution MIC of antibiotic with peptide; assay type: cell-based, Escherichia coli; details: for MIC Rifampin: Experiment I; for MIC Fusidic a.: Experiment II; for MIC Novobiocin: Experiment III; for MIC Erythrom.: Experiment IV
Procedure: (§1) The general assay medium was L broth (pH7.2) which contained 10 g of tryptone (Difco Laboratories, Detroit, Mich.), 5 g of yeast extract (Oxoid Ltd., Hampshire, UK) and 5 g of sodium chloride per liter. After an incubation time of 18 hours at 37° C., the growth of each microtiter well is measured with a Titerteck Multiscan spectrophotometer at 405 nm. Before reading, the spectrophotometer was blanked with corresponding uninoculated drug-containing media. The minimum inhibitory concentration (MIC) of an antibiotic was defined as the lowest concentration of the antibiotic expressed in mg/l which reduced the growth of the target bacteria by ≥90% (MIC90).

Micrococcus luteus ML36 = experiment: Antibacterial activity of peptide used alone; assay type: cell-based; details: no antibiotic
Pseud. aeroginosa PAO1 = experiment: Antibacterial activity of peptide used alone; assay type: cell-based, Pseudomonas aeruginosa; details: no antibiotic
S. typhi SH5014 = experiment: Checkerboard microdilution MIC of antibiotic with peptide; assay type: cell-based, Salmonella typhimurium; details: for MIC Rifampin: Experiment I; for MIC Fusidic a.: Experiment II; for MIC Novobiocin: Experiment III
Procedure: as §1

E. coli IH3080 [2] = experiment: Antibacterial activity of peptide used alone; assay type: cell-based, Escherichia coli; details: no antibiotic
Klebs pneum. 12854 = experiment: Antibacterial activity of peptide used alone; assay type: cell-based, Klebsiella pneumoniae; details: no antibiotic
Kl. pneumoniae 12854 = experiment: Checkerboard microdilution MIC of antibiotic with peptide; assay type: cell-based; details: for MIC Rifampin: Experiment I; for MIC Fusidic a.: Experiment II; for MIC Novobiocin: Experiment III; for MIC Erythrom.: Experiment IV
Procedure: as §1

E. cloa 12645 = experiment: as above; assay type: cell-based, Enterobacter cloacae; details: for MIC Rifampin: Experiment I; for MIC Fusidic a.: Experiment II; for MIC Novobiocin: Experiment III; for MIC Erythrom.: Experiment IV
Procedure: as §1

CC(C)C[C@H](NC(=O)[C@H](CCCNC(=N)N)NC(=O)[C@@H](N)CCCCN)C(=O)N[C@@H](CCCCN)C(=O)N[C@@H](Cc1c[nH]c2ccccc12)C(=O)N[C@@H](CCCCN)C(=O)N[C@@H](Cc1ccc(O)cc1)C(=O)N[C@@H](CCCCN)C(=O)NCC(=O)N[C@@H](CCCCN)C(=O)N[C@@H](Cc1ccccc1)C(=O)O [Peptide Seq. ID 28] (H-KRLKWKYKGKF-OH)
> 100 mg/L: antibacterial activity (MIC) of peptide used alone (Enterob. cloacae 12654) | antibacterial activity (MIC) of peptide used alone (Pseud. aeroginosa PAO1) | antibacterial activity (MIC) of peptide used alone (E. coli IH3080 [2]) | antibacterial activity (MIC) of peptide used alone (Klebs pneum. 12854) | MIC Erythrom. (Kl. pneumoniae 12854; peptide 1 mg/l) | MIC Erythrom. (E. cloa 12645; peptide 1 mg/l)
0.1 mg/L: MIC Rifampin (S. typhi SH5014; peptide 30 mg/l)
100 mg/L: MIC Fusidic a. (E. coli IH3080 [1]; peptide 10 mg/l) | MIC Fusidic a. (S. typhi SH5014; peptide 30 mg/l) | MIC Erythromycin. (S. typhi SH5014; Experiment IV, peptide 1 mg/l) | MIC Erythromycin. (S. typhi SH5014; Experiment IV, peptide 10 mg/l) | MIC Erythrom. (Kl. pneumoniae 12854; peptide 10 mg/l) | MIC Fusidic a. (E. cloa 12645; peptide 100 mg/l) | MIC Erythrom. (E. cloa 12645; peptide 10 mg/l) | MIC Erythrom. (E. cloa 12645; peptide 100 mg/l)
0.01 mg/L: MIC Rifampin (E. coli IH3080 [1]; peptide 100 mg/l)
0.3 mg/L: MIC Rifampin (E. coli IH3080 [1]; peptide 10 mg/l)
300 mg/L: MIC Fusidic a. (E. coli IH3080 [1]; peptide 1 mg/l) | MIC Fusidic a. (S. typhi SH5014; peptide 1 mg/l) | MIC Fusidic a. (S. typhi SH5014; peptide 10 mg/l) | MIC Fusidic a. (Kl. pneumoniae 12854; peptide 10 mg/l) | MIC Fusidic a. (E. cloa 12645; peptide 10 mg/l)
3 mg/L: MIC Novobiocin (E. coli IH3080 [1]; peptide 10 mg/l) | MIC Novobiocin (S. typhi SH5014; peptide 10 mg/l) | MIC Novobiocin (Kl. pneumoniae 12854; peptide 100 mg/l) | MIC Rifampin (E. cloa 12645; peptide 10 mg/l)
> 300 mg/L: MIC Fusidic a. (Kl. pneumoniae 12854; peptide 1 mg/l) | MIC Fusidic a. (E. cloa 12645; peptide 1 mg/l)
1 mg/L: MIC Rifampin (E. coli IH3080 [1]; peptide 1 mg/l) | MIC Fusidic a. (E. coli IH3080 [1]; peptide 100 mg/l) | MIC Novobiocin (E. coli IH3080 [1]; peptide 100 mg/l) | MIC Erythrom. (E. coli IH3080 [1]; peptide 100 mg/l) | MIC Rifampin (S. typhi SH5014; peptide 10 mg/l) | MIC Novobiocin (S. typhi SH5014; peptide 30 mg/l) | MIC Rifampin (Kl. pneumoniae 12854; peptide 100 mg/l) | MIC Rifampin (E. cloa 12645; peptide 100 mg/l)
30 mg/L: MIC Erythrom. (E. coli IH3080 [1]; peptide 1 mg/l) | antibacterial activity (MIC) of peptide used alone (Micrococcus luteus ML36) | MIC Fusidic a. (Kl. pneumoniae 12854; peptide 100 mg/l) | MIC Novobiocin (Kl. pneumoniae 12854; peptide 1 mg/l) | MIC Erythrom. (Kl. pneumoniae 12854; peptide 100 mg/l) | MIC Novobiocin (E. cloa 12645; peptide 10 mg/l)
> 30 mg/L: MIC Novobiocin (E. cloa 12645; peptide 1 mg/l)
10 mg/L: MIC Novobiocin (E. coli IH3080 [1]; peptide 1 mg/l) | MIC Erythrom. (E. coli IH3080 [1]; peptide 10 mg/l) | MIC Rifampin (S. typhi SH5014; peptide 1 mg/l) | MIC Novobiocin (S. typhi SH5014; peptide 1 mg/l) | MIC Erythrom. (S. typhi SH5014; Experiment IV, peptide 30 mg/l) | MIC Rifampin (Kl. pneumoniae 12854; peptide 1 mg/l) | MIC Rifampin (Kl. pneumoniae 12854; peptide 10 mg/l) | MIC Novobiocin (Kl. pneumoniae 12854; peptide 10 mg/l) | MIC Rifampin (E. cloa 12645; peptide 1 mg/l) | MIC Novobiocin (E. cloa 12645; peptide 100 mg/l)

CC[C@H](C)[C@H](N)C(=O)N[C@@H](CCCCN)C(=O)N[C@H](C(=O)N[C@@H](CCCCN)C(=O)N[C@H]1CSSC[C@@H](C(=O)O)NC(=O)[C@H](CCCCN)NC(=O)[C@H](CCCCN)NC(=O)[C@H](CC(C)C)NC(=O)[C@H](Cc2ccccc2)NC(=O)[C@H](CCCCN)NC1=O)[C@@H](C)O [Peptide Seq. ID 35] (H-IKTKCKFLKKC-OH; disulfide 5-11)
> 300 mg/L: MIC Fusidic a. (S. typhi SH5014; peptide 1 mg/l) | MIC Fusidic a. (S. typhi SH5014; peptide 10 mg/l) | MIC Fusidic a. (Kl. pneumoniae 12854; peptide 1 mg/l) | MIC Fusidic a. (Kl. pneumoniae 12854; peptide 10 mg/l) | MIC Fusidic a. (E. cloa 12645; peptide 1 mg/l) | MIC Fusidic a. (E. cloa 12645; peptide 10 mg/l)
3 mg/L: MIC Rifampin (E. coli IH3080 [1]; peptide 10 mg/l) | MIC Novobiocin (E. coli IH3080 [1]; peptide 100 mg/l) | MIC Rifampin (S. typhi SH5014; peptide 100 mg/l) | MIC Rifampin (E. cloa 12645; peptide 100 mg/l)
300 mg/L: MIC Fusidic a. (E. coli IH3080 [1]; peptide 1 mg/l) | MIC Fusidic a. (S. typhi SH5014; peptide 100 mg/l) | MIC Fusidic a. (Kl. pneumoniae 12854; peptide 100 mg/l) | MIC Fusidic a. (E. cloa 12645; peptide 100 mg/l)
1 mg/L: MIC Rifampin (E. coli IH3080 [1]; peptide 100 mg/l)
> 100 mg/L: antibacterial activity (MIC) of peptide used alone (Enterob. cloacae 12654) | antibacterial activity (MIC) of peptide used alone (Micrococcus luteus ML36) | antibacterial activity (MIC) of peptide used alone (Pseud. aeroginosa PAO1) | antibacterial activity (MIC) of peptide used alone (E. coli IH3080 [2]) | antibacterial activity (MIC) of peptide used alone (Klebs pneum. 12854) | MIC Erythrom. (Kl. pneumoniae 12854; peptide 1 mg/l) | MIC Erythrom. (Kl. pneumoniae 12854; peptide 10 mg/l) | MIC Erythrom. (Kl. pneumoniae 12854; peptide 100 mg/l) | MIC Erythrom. (E. cloa 12645; peptide 1 mg/l) | MIC Erythrom. (E. cloa 12645; peptide 10 mg/l) | MIC Erythrom. (E. cloa 12645; peptide 100 mg/l)
10 mg/L: MIC Rifampin (E. coli IH3080 [1]; peptide 1 mg/l) | MIC Rifampin (S. typhi SH5014; peptide 1 mg/l) | MIC Rifampin (S. typhi SH5014; peptide 10 mg/l) | MIC Novobiocin (S. typhi SH5014; peptide 10 mg/l) | MIC Novobiocin (S. typhi SH5014; peptide 100 mg/l) | MIC Rifampin (Kl. pneumoniae 12854; peptide 1 mg/l) | MIC Rifampin (Kl. pneumoniae 12854; peptide 10 mg/l) | MIC Rifampin (Kl. pneumoniae 12854; peptide 100 mg/l) | MIC Novobiocin (Kl. pneumoniae 12854; peptide 100 mg/l) | MIC Rifampin (E. cloa 12645; peptide 1 mg/l) | MIC Rifampin (E. cloa 12645; peptide 10 mg/l)
30 mg/L: MIC Novobiocin (E. coli IH3080 [1]; peptide 1 mg/l) | MIC Novobiocin (E. coli IH3080 [1]; peptide 10 mg/l) | MIC Erythrom. (E. coli IH3080 [1]; peptide 1 mg/l) | MIC Erythrom. (E. coli IH3080 [1]; peptide 10 mg/l) | MIC Erythrom. (E. coli IH3080 [1]; peptide 100 mg/l) | MIC Novobiocin (S. typhi SH5014; peptide 1 mg/l) | MIC Novobiocin (Kl. pneumoniae 12854; peptide 1 mg/l) | MIC Novobiocin (Kl. pneumoniae 12854; peptide 10 mg/l) | MIC Novobiocin (E. cloa 12645; peptide 100 mg/l)
> 30 mg/L: MIC Novobiocin (E. cloa 12645; peptide 1 mg/l) | MIC Novobiocin (E. cloa 12645; peptide 10 mg/l)
100 mg/L: MIC Fusidic a. (E. coli IH3080 [1]; peptide 10 mg/l) | MIC Fusidic a. (E. coli IH3080 [1]; peptide 100 mg/l) | MIC Erythromycin. (S. typhi SH5014; Experiment IV, peptide 1 mg/l) | MIC Erythromycin. (S. typhi SH5014; Experiment IV, peptide 10 mg/l) | MIC Erythromycin. (S. typhi SH5014; Experiment IV, peptide 100 mg/l)
